Measured values: PubChem BioAssay AID1460 (National Center for Advancing Translational Sciences (NCATS), 2008)
In all, about 270,000 compounds went through this assay and about 5,800 (2.1%) were called active. The shares of active, inactive and inconclusive entries below differ from those in the screen. The call rests on the fitted dose curve; in most records, active means well fitted inhibition curve with a large enough effect; inconclusive means small, poorly fitted or top-dose-only effect; inactive means flat fitted curve, though single readings scatter. Potencies beside an inconclusive call are fits to weak or partial responses and may not hold up.
Further: nearly all actives have a fitted effect of over 55% in size.
On the % scale 0 is the no-effect control and ±100 the full control effect; potency means the concentration at half of the fitted maximal effect; tags describe the fitted curve by direction and shape.

What follows are molecules tested against Microtubule-associated protein tau (Homo sapiens) (UniProt P10636) (assay: qHTS for Inhibitors of Tau Fibril Formation, Thioflavin T Binding). Settings: recombinant tau K18 P301L (four-repeat tau fragment), heparin-induced fibrillization, ThT fluorescence; series mostly up to 57.4 µM; activity, negative = inhibition: at the top concentration.
UniProt P10636, sequence (P10636 whole entry, looked up, the tested form may be a part): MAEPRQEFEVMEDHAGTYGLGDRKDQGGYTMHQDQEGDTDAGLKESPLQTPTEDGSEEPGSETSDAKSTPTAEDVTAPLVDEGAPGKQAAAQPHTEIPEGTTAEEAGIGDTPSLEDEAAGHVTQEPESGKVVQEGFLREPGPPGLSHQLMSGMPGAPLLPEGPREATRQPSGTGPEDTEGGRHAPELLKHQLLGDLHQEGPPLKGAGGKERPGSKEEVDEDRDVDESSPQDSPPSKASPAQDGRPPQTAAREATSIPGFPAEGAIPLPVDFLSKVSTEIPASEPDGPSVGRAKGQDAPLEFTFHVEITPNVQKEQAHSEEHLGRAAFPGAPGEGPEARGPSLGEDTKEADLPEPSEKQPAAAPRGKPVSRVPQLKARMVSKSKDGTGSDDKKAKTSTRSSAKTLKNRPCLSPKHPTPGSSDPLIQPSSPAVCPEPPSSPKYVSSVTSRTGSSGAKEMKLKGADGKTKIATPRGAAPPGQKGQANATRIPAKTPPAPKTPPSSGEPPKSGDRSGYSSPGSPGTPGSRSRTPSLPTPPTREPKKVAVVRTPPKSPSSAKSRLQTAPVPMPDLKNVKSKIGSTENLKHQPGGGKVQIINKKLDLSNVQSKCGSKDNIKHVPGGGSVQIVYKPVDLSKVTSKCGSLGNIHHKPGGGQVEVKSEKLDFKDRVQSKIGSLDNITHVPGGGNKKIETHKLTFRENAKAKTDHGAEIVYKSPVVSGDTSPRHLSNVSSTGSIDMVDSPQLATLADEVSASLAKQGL
How it was run: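 In this qHTS, human K18 P301L tau is incubated with compound and heparin for 6 hr at 37 C, and Thioflavin T fluorescence then reports fibril load.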
In the case of `CC1CCN(c2[nH]c(=S)c(C#N)c3c2CCCC3)CC1`, the “activity, negative = inhibition” value is reported as inactive: -20.3%.
With `Cc1ccc(C(=O)O/N=C/c2ccc3c(c2)OCO3)cc1` the Potency was inconclusive: 0.501 µM [inhibitor, full curve].
With `Cc1ccc(CN=Cc2[nH]c3ccc(Br)c(Cl)c3c2O)cc1` the Potency was inconclusive: 17.8 µM [inhibitor, partial curve].
With `COc1ccc(NC(=O)COCc2cc(-c3ccco3)on2)cc1Cl` the Potency was inconclusive: 28.2 µM [inhibitor, single point].
For `O=C(NCCc1cn2ccccc2n1)c1cc(COc2c(F)cccc2F)on1`, the Potency was inconclusive: 20 µM [inhibitor, partial curve].
In the case of `CN(Cc1ccccn1)Cc1nc(-c2ccc(Cl)cc2)no1`, the Potency is reported as inconclusive: 28.2 µM [inhibitor, single point].
In the case of `CCc1cccc(C)c1Nc1c(-c2cccs2)nc2ncccn12`, the Potency is reported as inconclusive: 35.5 µM [inhibitor, single point].
`CCC(=O)N1c2ccc(S(=O)(=O)CCC(=O)NCc3ccc(OC)cc3)cc2CC1C` (stereo not drawn) was tested, and the “activity, negative = inhibition” value was inactive: -5.8%.
In the case of `CN(C)c1ccc(C(=S)NCc2ccco2)cc1`, the Potency is reported as active: 10 µM.
`CC(C)=CC(=O)Nc1nnc(C)s1` was tested, and the “activity, negative = inhibition” value was inactive: -6.41%.
With `CC(C)CO/N=C1/C[C@@H](O)[C@@H](O)[C@@H]2[C@@H]3C(=O)N(C(C)(C)C)C(=O)[C@H]3CC[C@@H]12` the activity, negative = inhibition was inactive: -3.14% [at 11.5 µM].
For `COc1ccc(/C=N\NC(=O)C2COc3ccccc3O2)cc1O` (stereo not drawn), the Potency was inconclusive: 14.1 µM [inhibitor, partial curve].
`Cc1cc(C)n(C(=O)CNC(=O)c2cccs2)n1` was tested, and the Potency was inconclusive: 44.7 µM [inhibitor, single point].
For `COc1ccc(-c2cc3nc4c(c(=O)n3[nH]2)CCC4)cc1`, the Potency was inconclusive: 12.6 µM [inhibitor, partial curve].
In the case of `CCOc1ccc(N(Cc2cc3ccc(C)cc3[nH]c2=O)S(C)(=O)=O)cc1`, the Potency is reported as inconclusive: 8.91 µM [inhibitor, full curve, poor fit].
With `Oc1cccc(/C=N/Nc2cc(N3CCCC3)nc(N3CCCC3)n2)c1` the Potency was inconclusive: 15.8 µM [inhibitor, partial curve].
In the case of `O=C(N=Nc1c(O)[nH]c2ccccc12)c1cccs1`, the Potency is reported as active: 10 µM.
`COc1ccc(/C=C2\SC(=S)N(CCC(=O)NC3=NCCS3)C2=O)cc1OC` was tested, and the Potency was inconclusive: 10 µM [inhibitor, partial curve].
In the case of `COc1cccc(C2C(=O)N(C3CCCCC3)CC(=O)N2CCc2ccc(OC)c(OC)c2)c1` (stereo not drawn), the “activity, negative = inhibition” value is reported as inactive: 9.73%.
`S=c1[nH]nc(C2CCCCC2)n1/N=C/c1ccco1` was tested, and the “activity, negative = inhibition” value was inactive: 0.658%.
With `CCCC(C1=C(O)CC(C)(C)CC1=O)C1C(=O)CC(C)(C)CC1=O` (stereo not drawn) the Potency was inconclusive: 15.8 µM [inhibitor, partial curve].
`Nc1nc(N)c(S(=O)(=O)c2ccccc2)c(Nc2ccccc2)n1` was tested, and the “activity, negative = inhibition” value was inactive: 8.77%.
For `Cc1ccc(CNC(=O)/C=C/c2ccc(Br)o2)cc1`, the Potency was inconclusive: 31.6 µM [inhibitor, single point].
For `COc1ccc(CCNC(=O)CCc2c(C)c3ccc(O)c(C)c3oc2=O)cc1`, the “activity, negative = inhibition” value was inactive: -15.7%.
`Cc1nc2nc(CNC(=O)OC(C)(C)C)nn2c(C)c1CCC(=O)NCc1ccccc1Cl` was tested, and the “activity, negative = inhibition” value was inactive: 2.97%.
`Cc1cccc(N2CCN(C(=O)CS(=O)(=O)Cc3nc(-c4ccccc4F)oc3C)CC2C)c1` (stereo not drawn) was tested, and the Potency was inconclusive: 6.31 µM [inhibitor, partial curve].
With `COc1cc(OC)c(NC(=O)CCc2nc(C3=CCN(Cc4cccc(Cl)c4)CC3)no2)cc1Cl` the Potency was inconclusive: 25.1 µM [inhibitor, partial curve, poor fit].
With `CCCC1CCC(=NNC(=S)NCCc2ccccc2)CC1` (stereo not drawn) the Potency was inconclusive: 12.6 µM [inhibitor, partial curve].
`CCc1cccc(NC(=O)CN(C)S(=O)(=O)c2ccc3[nH]c4c(c3c2)CCCC4)c1` was tested, and the Potency was inconclusive: 8.91 µM [inhibitor, single point].
With `Cc1ccc(-c2nnc3c4ccccc4c(C)nn23)cc1NC(=O)c1ccccc1` the Potency was inconclusive: 7.94 µM [inhibitor, partial curve].
In the case of `Cn1c(=O)c2ncn(CC(=O)Nc3ccc4c5c(cccc35)CC4)c2n(C)c1=O`, the Potency is reported as inconclusive: 14.1 µM [inhibitor, partial curve].
In the case of `Cc1ccc(/C=c2\sc3nc(-c4cccs4)nn3c2=O)o1`, the Potency is reported as inconclusive: 5.62 µM [inhibitor, partial curve].
With `COc1ccc(-c2cn3c(C)c(C(=O)Nc4cc(C)cc(C)c4)sc3n2)cc1` the Potency was inconclusive: 0.501 µM [inhibitor, full curve].
With `COc1cc(/C=C2/C(=N)N3OC(C)=CC3=NC2=O)ccc1OCCOc1ccc(C)cc1` the Potency was inconclusive: 7.08 µM [inhibitor, full curve].
For `Cc1ccc(-c2cnn(-c3cccc([N+](=O)[O-])c3)c2N)cc1`, the Potency was inconclusive: 14.1 µM [inhibitor, partial curve].
With `COC(=O)CCn1nnc(-c2ccc(C(C)C)cc2)n1` the Potency was inconclusive: 31.6 µM [inhibitor, partial curve].
`CC1CCc2c(sc(NC(=O)CCCOc3ccccc3)c2C(N)=O)C1` (stereo not drawn) was tested, and the Potency was inconclusive: 1.26 µM [inhibitor, full curve].
In the case of `COc1n[nH]c(C(=O)Nc2cc(Cl)ccc2Cl)c1[N+](=O)[O-]`, the Potency is reported as inconclusive: 31.6 µM [inhibitor, single point].
`Cc1ccccc1CS(=O)(=O)c1ccc(C(=O)N2CCC(C)CC2)cc1[N+](=O)[O-]` was tested, and the Potency was inconclusive: 25.1 µM [inhibitor, partial curve].
With `COc1ccc(OCC(=O)Nc2ccc(N3CCOCC3)cc2)c([N+](=O)[O-])c1` the Potency was inconclusive: 12.6 µM [inhibitor, partial curve].
For `COc1ccc(N2CCC(CNC(=S)Nc3c(C)cccc3C)C2)cc1` (stereo not drawn), the Potency was inconclusive: 12.6 µM [inhibitor, partial curve].
With `c1ccc(-c2nc(-c3ccco3)cs2)nc1` the Potency was inconclusive: 31.6 µM [inhibitor, single point].
In the case of `Cc1ccc(-c2csc(NC(=O)c3ccno3)n2)cc1`, the Potency is reported as inconclusive: 15.8 µM [inhibitor, partial curve].
